Assay results as given in PubChem BioAssay AID504466 (National Center for Advancing Translational Sciences (NCATS), 2011).
Hit rate of the full screen: of about 330,000 compounds, about 4,200 (1.3%) were called active. Entries that show only a call come without a potency. Inconclusive results, whose numbers are uncertain, are shown with a selection of clear calls. Calls follow the shape of the dose curve; as a rule, active = well fitted activation curve with a large enough effect; inconclusive = small, poorly fitted or top-dose-only effect; inactive = no such curve, though single readings can be large or run the other way. Potencies beside an inconclusive call are fits to weak or partial responses and may not hold up.
Potency is read from the fitted curve at half-maximal effect; tags tell the direction and shape of the fitted curve.

Assay: qHTS screen for small molecules that induce genotoxicity in human embryonic kidney (HEK293T) cells expressing luciferase-tagged ELG1; also: nearly all actives have a fitted effect of over 60% in size
Conditions: HEK293T ELG1-luciferase reporter, luminescence, 16 h; series mostly up to 46 µM
How it was run: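 Genotoxic stress is detected as increased luminescence from luciferase-tagged ELG1 in HEK293T cells, measured with ONE-Glo after a 16 hr treatment at 37 °C.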
With `O=CN/N=C/c1c(O)ccc2ccccc12` the Potency was “inactive”. In the case of `N#C/C(=C/c1ccc(N2CCCCC2)o1)c1cccc(F)c1`, the Potency is reported as active: 3.66 µM. For `Cc1ccc(C(=O)N/N=C\c2cc3c(cc2Br)OCO3)cn1`, the Potency was inconclusive: 25.9 µM [activator, partial curve, poor fit]. With `CCOC(=O)CSc1nc(N)nc(C)c1Br` the Potency was “inactive”. In the case of `Cc1ccc(C2=NS(=O)(=O)N(C)C(C(=O)N3CCOCC3)=C2)cc1`, the Potency is reported as “inactive”. For `CN(C)S(=O)(=O)c1ccc(C(=O)NCCS(=O)(=O)N2CCN(c3ccc(F)cc3)CC2)cc1`, the Potency was “inactive”. In the case of `CCc1ccc(/C=C2/SC(=S)N(CCC(=O)Nc3cccnc3)C2=O)cc1`, the Potency is reported as “inactive”. With `Clc1cccc(Cl)c1CNc1ccc(N2CCCC2)cc1` the Potency was inconclusive: 29.1 µM [activator, partial curve, poor fit]. For `Cc1ccc(NC(=O)c2cnc(SCC(=O)NCC3CCCO3)n(C)c2=O)cc1C` (configuration not stated), the Potency was active: 20.6 µM. For `CCN(CC(=O)Nc1ccc(NC(C)=O)cc1)C(=O)CCCc1c[nH]c2ccccc12`, the Potency was “inactive”. For `CCOc1ccc(NC(=O)CCc2c(C)nn(-c3ccc(N4CCCCC4)nn3)c2C)cc1`, the Potency was inconclusive: 9.2 µM [activator, partial curve, poor fit]. With `C/C(=N\NC(=O)c1nn(C)c(C)c1Br)c1ccc(NC(=O)C2CCCC2)cc1` the Potency was inconclusive: 8.2 µM [activator, partial curve, poor fit]. In the case of `CCCn1nc(Oc2nc(N(C)C)nc(N(C)C)n2)ccc1=O`, the Potency is reported as “inactive”. With `COc1ccc(N(CC(=O)NC(C)c2ccccc2)S(=O)(=O)c2ccc(C)cc2)cc1` (configuration not stated) the Potency was “inactive”. In the case of `Cc1cccc2c(=O)c(C(=O)NCCc3ccccc3)c[nH]c12`, the Potency is reported as inconclusive: 18.3 µM [activator, partial curve, poor fit]. In the case of `Cc1ccc2c(COC(=O)c3n[nH]c4ccccc34)cc(=O)oc2c1`, the Potency is reported as active: 4.61 µM. In the case of `CC(=O)Nc1cccc(NC(=O)CCNC(=O)c2ccccc2)c1`, the Potency is reported as “inactive”. For `Cc1cc(SCc2ccccc2Cl)nc(=O)[nH]1`, the Potency was “inactive”. In the case of `COc1ccc2nc(N3CCCC3)c(C#N)cc2c1`, the Potency is reported as inconclusive: 20.6 µM [activator, partial curve]. With `CCN(CC)c1nc2c(s1)C(=O)CC(C)(C)C2` the Potency was inconclusive: 20.6 µM [activator, partial curve, poor fit]. In the case of `Cc1ccc([N+](=O)[O-])c(NC2OC(CO)C(O)C2O)c1` (configuration not stated), the Potency is reported as “inactive”. For `Cc1cccc(C(=O)NCC(=O)OCc2nnc(-c3ccccc3)o2)c1`, the Potency was inconclusive: 25.9 µM [activator, single point].
